In all, about 33,000 sequences were measured (“E-score (-0.5 to 0.5)”: median about -0.011, highest 2% from about 0.28 on). The list shows a part of the results.
The sequences below were run against T1, Gcr1 (UniProt P07261) (assay: PBM E-score (8-mer binding enrichment) (E-score (-0.5 to 0.5)); higher = stronger / more preferred TF binding; most listed sequences are background and not binding sites). Conditions: protein concentration: 100 nM; construct: GST-full length.
T1 sequence: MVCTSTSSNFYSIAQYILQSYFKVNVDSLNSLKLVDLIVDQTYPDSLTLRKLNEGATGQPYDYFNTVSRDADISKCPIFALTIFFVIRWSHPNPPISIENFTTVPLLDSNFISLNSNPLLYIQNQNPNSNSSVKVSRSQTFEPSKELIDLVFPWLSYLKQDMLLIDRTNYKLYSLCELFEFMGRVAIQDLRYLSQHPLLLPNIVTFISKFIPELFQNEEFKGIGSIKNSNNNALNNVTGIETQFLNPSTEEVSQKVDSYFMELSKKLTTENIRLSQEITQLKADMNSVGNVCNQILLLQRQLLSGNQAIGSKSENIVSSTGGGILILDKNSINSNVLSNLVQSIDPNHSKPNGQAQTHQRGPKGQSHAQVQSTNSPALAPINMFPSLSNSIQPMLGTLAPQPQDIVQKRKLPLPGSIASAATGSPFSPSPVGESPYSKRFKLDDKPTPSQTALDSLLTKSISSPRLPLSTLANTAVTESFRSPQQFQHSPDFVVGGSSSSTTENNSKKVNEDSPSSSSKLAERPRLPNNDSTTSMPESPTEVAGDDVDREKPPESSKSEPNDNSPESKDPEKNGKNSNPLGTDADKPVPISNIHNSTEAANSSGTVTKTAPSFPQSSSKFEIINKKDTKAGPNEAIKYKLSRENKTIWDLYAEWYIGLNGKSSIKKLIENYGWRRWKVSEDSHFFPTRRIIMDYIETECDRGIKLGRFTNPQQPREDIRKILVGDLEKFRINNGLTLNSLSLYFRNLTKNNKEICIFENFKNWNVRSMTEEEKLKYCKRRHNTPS
How it was run: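 E-scores (a modified Wilcoxon-Mann-Whitney statistic) were assigned by the Universal PBM Analysis Suite to every ungapped eight-base word pooled with its reverse complement. The input came from universal all-10-mer Agilent arrays made double-stranded by primer extension and probed with GST-tagged yeast transcription factors at about 100-200 nM. Fluorescent anti-GST detected bound protein, and masliner normalised the scans.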

Row | Sequence | PBM E-score
1 | GCTCCTAA | 0.144
2 | AGGATCCC | 0.379
3 | CTTCCAGA | 0.341
4 | CGGCGTAA | 0.0298
5 | CTCATACA | -0.274
6 | AATTCCAA | 0.308
7 | TATTAGGA | 0.262
8 | ATCGGCCC | -0.212
9 | AAACAGAA | 0.22
10 | CCTCACTA | -0.115
11 | CGACAGCA | -0.211
12 | GTCGCATA | 0.0683
13 | GACATGCA | 0.028
14 | ATGGGTCG | 0.0409
15 | GCATGTGA | -0.287
16 | ACTGGCAG | 0.17
17 | GATCTCGA | 0.0386
18 | AGATACAG | 0.0131
19 | ACCTGAGT | -0.167
20 | CGACCTTC | -0.176
21 | AGGCCTTC | -0.146
22 | CCTTTGGA | 0.0993
23 | ATTACTTC | -0.0314
24 | AGTCCCCC | -0.159
25 | AGAAGAAT | 0.119

Row | Sequence | PBM E-score
26 | CACTCACC | -0.104
27 | AAGGCTCT | -0.187
28 | ATGTCCCC | -0.0406
29 | AGCCCATG | -0.0306
30 | AGTCTCGG | -0.201
31 | ATGGCATA | -0.165
32 | CTCTTAAA | 0.0108
33 | CTTATATC | 0.0695
34 | CCTAATCA | 0.211
35 | AGATCCCC | 0.156
36 | AGGATAGA | 0.05
37 | ATACTGCA | 0.0345
38 | CAGATCAG | -0.144
39 | CGCCACTC | 0.0754
40 | ACTGGATC | 0.316
41 | AGCCCTAA | 0.0796
42 | ACACACGA | 0.0479
43 | CTATCCAC | 0.0657
44 | CGACTATA | 0.0834
45 | GAGGTGCA | -0.125
46 | AGAGAAAT | 0.0413
47 | AAACGTGG | 0.0189
48 | AGATAATA | 0.0377
49 | AAATGAAT | -0.0755
50 | CGTTCCTA | 0.15

Row | Sequence | PBM E-score
51 | AAAGCGCC | 0.0699
52 | ACCTTGAC | -0.0262
53 | ACATCCTC | 0.0229
54 | ATCTCACC | -0.129
55 | TAATGGCA | 0.295
56 | CTCTTGCA | -0.139
57 | TTGGCAAA | -0.142
58 | CGGCCAAG | -0.27
59 | GGGTAGAC | -0.115
60 | CTAGTCAA | -0.198
61 | ACCATGAT | -0.223
62 | CCATTGCC | -0.252
63 | CCGAATCC | 0.133
64 | CCGATGAG | -0.151
65 | GGTGTGTA | 0.0291
66 | GCTCAAGA | 0.0121
67 | CTGTATTC | 0.124
68 | AGTCTCCA | 0.0915
69 | CTCCGCGA | 0.0908
70 | CGCTCGCC | 0.0134
71 | CAGGACGG | -0.182
72 | ACAGTGCT | -0.124
73 | ATCTCAAT | 0.0778
74 | ACGCTAAT | 0.0647
75 | AATATACA | -0.0364

Row | Sequence | PBM E-score
76 | GGTGGTGA | 0.0438
77 | CGTGTTCA | -0.0157
78 | TAACCTTA | 0.0015
79 | ATATGTCG | 0.111
80 | ACGAACTC | 0.0909
81 | CTCCTTAA | -0.0427
82 | GGCTGGAC | -0.207
83 | AGTCACTG | -0.105
84 | ATTTAAAC | 0.0926
85 | TAGTTAGA | -0.0205
86 | ACTCAATC | -0.172
87 | ATGTTAGC | -0.154
88 | AGTTGCAC | -0.0239
89 | AGTCGTGC | -0.103
90 | AGGTCCCC | 0.132
91 | CAGGTGCG | 0.0545
92 | ACTGGCTC | -0.0201
93 | AATCAACG | -0.0901
94 | ACGTTCGC | -0.286
95 | TATGGACA | 0.0384
96 | CCATGAAC | 0.0264
97 | AGAACGGC | -0.164
98 | CTACAGGC | 0.104
99 | CACTTCGA | 0.163
100 | GCCACGCC | -0.138

Row | Sequence | PBM E-score
101 | ATAGCGTC | 0.255
102 | GTCGAAAC | -0.153
103 | ATGAACGC | 0.0593
104 | CAAAAATA | 0.197
105 | GGTTGTAC | -0.00016
106 | CTATCCGA | -0.176
107 | CAGACTGG | -0.08
108 | CCACATCC | -0.0273
109 | CAATAATG | 0.00993
110 | TGAAGAAA | 0.0487
111 | GAAGACAA | -0.0743
112 | TCCTATAA | 0.334
113 | GCCTAGAA | 0.00611
114 | GATTCAGC | -0.113
115 | ACATGTTG | 0.0619
116 | CCAAATCC | 0.00339
117 | ACATTTCC | 0.0691
118 | GCGAGGGA | -0.142
119 | GTTCCTAA | 0.237
120 | ACATTGAC | -0.117
121 | CCAACTCA | -0.071
122 | GCATGAGA | -0.0609
123 | CGAGCTCC | -0.0144
124 | CCTCACAC | -0.324
125 | ACTACTGC | -0.0813

Row | Sequence | PBM E-score
126 | CAAAGGTA | -0.00372
127 | TGTTCCAA | 0.112
128 | GGCACAAC | 0.0546
129 | ATAAAACG | 0.0597
130 | ACTTTGGC | -0.0848
131 | ACTATCGA | -0.0816
132 | CTCGCTGA | -0.164
133 | CCGCAGCG | 0.0315
134 | GAACCGTA | -0.0954
135 | GCGTAAAC | 0.107
136 | CAAACGGG | 0.0171
137 | AGGGGTGA | 0.0779
138 | AGACCGGC | -0.0223
139 | AATGTCCC | -0.0296
140 | CAGGGAAA | -0.0422
141 | AAGCTGGC | -0.00364
142 | AGGCGACA | -0.105
143 | ATACATTA | 0.109
144 | GATATGGA | 0.0843
145 | AGGTTCGG | -0.0598
146 | ATCCGTGG | -0.176
147 | AATCCGAA | 0.259
148 | GCATTTCA | 0.0146
149 | AGAACCGA | -0.05
150 | GCGACCAC | 0.232

Row | Sequence | PBM E-score
151 | CAGAACCC | 0.208
152 | CTGCCCTC | -0.0917
153 | GACTAGTC | -0.431
154 | AGTATACC | -0.0235
155 | CACATCTA | -0.144
156 | GTACCCAA | -0.00617
157 | ATTTCATC | 0.0139
158 | GCGCCACC | -0.185
159 | GCGCGGGA | -0.155
160 | CGTATCCC | 0.189
161 | AGAACCAG | 0.0955
162 | CGCACCAG | 0.118
163 | GGTTCAAA | -0.0629
164 | ATTAAGTG | 0.0922
165 | TATAATGA | 0.174
166 | CAGGAATC | 0.394
167 | GCAAAAAA | 0.0787
168 | ATTCCGGA | 0.197
169 | GAAAAAGA | 0.115
170 | GCCCTGTA | 0.0785
171 | AGTACTTC | 0.0452
172 | GTTTTCTA | 0.0859

From the supplement of paper PMC3334620
